# Screen size: about 310,000 compounds; about 2,200 (0.71%) showed an effect of 50% or more. Effects have a minus sign here. The list shows a part of the results.
# Molecular target: human ether-à-go-go-related gene (hERG) potassium channel (human, UniProt Q12809)
# Assay: primary screen, population patch clamp on CHO cells stably expressing hERG
# Chain of human ether-à-go-go-related gene (hERG) potassium channel (Q12809 whole entry, looked up): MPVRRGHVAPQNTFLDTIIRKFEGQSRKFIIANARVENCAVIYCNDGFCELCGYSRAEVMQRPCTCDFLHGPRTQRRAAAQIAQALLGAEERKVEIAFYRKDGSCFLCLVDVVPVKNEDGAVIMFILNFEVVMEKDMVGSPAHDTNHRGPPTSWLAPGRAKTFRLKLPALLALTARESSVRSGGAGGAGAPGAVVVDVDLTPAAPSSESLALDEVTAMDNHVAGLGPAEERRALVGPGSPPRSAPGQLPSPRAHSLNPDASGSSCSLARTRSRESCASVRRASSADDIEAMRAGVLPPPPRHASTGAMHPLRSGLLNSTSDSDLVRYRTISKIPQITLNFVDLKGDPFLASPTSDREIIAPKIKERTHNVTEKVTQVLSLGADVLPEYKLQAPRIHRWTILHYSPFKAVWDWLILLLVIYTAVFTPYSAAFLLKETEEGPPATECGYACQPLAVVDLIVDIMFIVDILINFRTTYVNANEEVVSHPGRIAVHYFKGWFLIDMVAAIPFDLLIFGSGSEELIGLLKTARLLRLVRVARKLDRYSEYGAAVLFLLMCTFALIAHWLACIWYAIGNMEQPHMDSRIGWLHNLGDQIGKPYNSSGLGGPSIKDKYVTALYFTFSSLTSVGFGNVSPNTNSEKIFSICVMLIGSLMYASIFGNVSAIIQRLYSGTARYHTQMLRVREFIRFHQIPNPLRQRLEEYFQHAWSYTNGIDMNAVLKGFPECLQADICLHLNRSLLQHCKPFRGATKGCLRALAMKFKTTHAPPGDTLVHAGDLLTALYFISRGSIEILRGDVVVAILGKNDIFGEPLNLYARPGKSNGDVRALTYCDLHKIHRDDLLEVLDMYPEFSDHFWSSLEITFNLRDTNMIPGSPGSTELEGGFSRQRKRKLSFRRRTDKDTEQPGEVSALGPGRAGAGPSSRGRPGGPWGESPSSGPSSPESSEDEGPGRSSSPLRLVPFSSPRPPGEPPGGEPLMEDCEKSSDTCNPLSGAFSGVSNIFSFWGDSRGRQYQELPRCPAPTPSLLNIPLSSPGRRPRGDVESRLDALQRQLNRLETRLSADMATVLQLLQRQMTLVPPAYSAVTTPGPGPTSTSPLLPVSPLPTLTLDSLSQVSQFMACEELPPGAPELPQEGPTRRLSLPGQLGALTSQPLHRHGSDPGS
row,SMILES,"hERG current change (%, negative = inhibition) at 1uM [%]"
1,CCCNc1c(NC(C)=O)c(=O)oc2ccccc12,11.1
2,CS(=O)(=O)N1CCN(C(=O)NC2CCCCC2)CC1,13
3,COc1cc2ccccc2cc1C(=O)Nc1ccc(Cl)cn1,23.4
4,CNc1[nH]c(=O)[nH]c(=O)c1N=Nc1cc(Cl)ccc1Cl,13.9
5,COc1cnc(-c2ccccc2)[nH]c1=O,-3.03
6,COC(=O)Cn1cc(/C=C/[N+](=O)[O-])c2ccccc21,0.326
7,O=C(Nc1cccc(S(=O)(=O)N2CCOCC2)c1)C1CCN(S(=O)(=O)c2ccccc2)CC1,2.73
8,COc1cccc(CN2CCNCC2)c1.Cl,19.6
9,C#CCOCCOCCOCCNc1nc(N2CCN(C(=O)CCCCCCCCCCNC(=O)[C@@H](CCSC)n3cc(CCO)nn3)CC2)nc(N2CCN(C(=O)CCCCCCCCCCNC(=O)[C@H](CCSC)n3cc(CCO)nn3)CC2)n1,13.3
10,CC(NC(=O)c1ccccc1F)C(=O)O (centres unmarked),16.8
11,FC(F)(F)c1cc(CCN2CCNC[C@@H]2Cc2ccccc2)cc(C(F)(F)F)c1,12.7
12,CCOc1ccc(CCNc2nc3ccc(C)cc3n3cnnc23)cc1OCC,-8.96
13,CCc1ccc(CN(C)Cc2nc(-c3cccc(Cl)c3)no2)nc1,8.72
14,Cc1cc(NC(=O)CSc2nncn2N)no1,13.2
15,Cc1ccc(NC(=O)CN(C)C(=O)Cn2cc(C(F)(F)F)cc(Cl)c2=O)cc1,8.72
16,NC(=O)c1ccc(C(=O)c2ccc([N+](=O)[O-])cc2)cc1,5.39
17,CN1CCN(S(=O)(=O)c2ccc(Oc3ccc(Br)cc3F)nc2)CC1,1.32
18,Cc1c(NC(=O)CSCc2c(F)cccc2Cl)c(=O)n(-c2ccccc2)n1C,5.27
19,O=P1(Oc2ccccc2)CC=C[C@H](COCc2ccccc2)O1 (some centres unmarked),18.4
20,O=C(c1cccc(S(=O)(=O)N2CCc3ccccc3C2)c1)N1CCN(c2ccccc2)CC1,16
21,Cc1c(CC(=O)O)c(=O)oc2cc(OCc3ccc(Cl)cc3)ccc12,12.8
22,CCC(CC)c1ncc[nH]1,16.1

row,SMILES,"hERG current change (%, negative = inhibition) at 1uM [%]"
1,CCOC(=O)c1c(-c2ccc(OC)cc2)csc1NC(=O)COc1ccc2c(C)cc(=O)oc2c1,11.1
2,Cc1ccc(C(=O)CCC(=O)CCC(=O)O)cc1,7.61
3,Cc1ccsc1/C=N/NC(=O)Nc1ccccc1,14.1
4,Cn1cc([N+](=O)[O-])c(C(=O)Nc2ccc(-c3nc4ccccc4o3)cc2)n1,17.1
5,CN(CC(=O)Nc1ccncc1)S(=O)(=O)c1ccccc1,5.39
6,N#CC(C#N)=Cc1cc2ccccc2nc1N1CCCCC1,7.85
7,COc1ccc(-n2nc3c(N4CCC(C(=O)NC5CCCCC5)CC4)nnc(C)c3c2C)cc1,14.6
8,O=C(NCCN1CCCC1=O)Nc1ccccc1,2.75
9,COc1ccc2cc3c(N)nn(C(=O)c4cccc(F)c4)c3nc2c1,8.88
10,COc1ccc(-c2c(-c3cc(OC)cc(OC)c3)n(C)c3ccc(-c4ccc(OC)nc4)cc23)cc1,8.97
11,O=[N+]([O-])c1cccc(S(=O)(=O)NCc2ccncc2)c1,12.3
12,Nc1nonc1-n1nnc(C(=O)N/N=C\c2cccc(Cl)c2)c1CN1CCOCC1,-1.03
13,CC(C)(C)NC(=O)CN(Cc1ccc2c(c1)OCO2)C(=O)CNC(=O)c1cccs1,1.94
14,CCOc1ccc(C(=O)NCCN2CCCCC2)c(OCC)c1,0.113
15,COc1ccc(NC2CCCN(C(=O)CSc3ccccc3)C2)cc1OC (centres unmarked),4.34
16,COc1ccc(CN2CCNC(=O)C2CC(=O)N(C)Cc2ccncn2)c(OC)c1 (centres unmarked),10.9
17,COCc1ccc(-c2c(-c3ccsc3)sc3ccccc23)cc1,14.7
18,CCCn1nnc(NC(=O)C(c2ccccc2)c2ccccc2)n1,10.2
19,Nc1nc(-c2ccco2)nn1C(=O)CCc1ccccc1,6.41
20,O=C(CNC(=S)N(Cc1ccccc1)Cc1cccnc1)N1CCOCC1,20.4
21,CCOc1ccc(NC(=O)Cc2c(C(=O)O)n(C)c3ccccc23)cc1,14.1
22,COC(=O)c1ccc(Nc2cc(C)nc3ccccc23)cc1.Cl,-8.87

row,SMILES,"hERG current change (%, negative = inhibition) at 1uM [%]"
1,O=C(CN1C(=O)COc2ccc(Cl)cc21)N1CCc2ccccc21,3.63
2,CCOC(=O)N1CCN(C(=O)c2ccc3c(c2)N(C)C(=O)/C(=C\c2ccc(OCC)c(OC)c2)S3)CC1,4.92
3,COc1ccc2cc(CN(Cc3ccco3)C(=S)NCC3CCCO3)c(=O)[nH]c2c1 (centres unmarked),13.7
4,N#CCCN(C1CCCCC1)S(=O)(=O)CCOc1ccccc1,13.1
5,COc1ccc(NC(=O)c2cccc(S(=O)(=O)N3CCOCC3)c2)cc1,-1.57
6,CCOC(=O)N1CCN(C(=O)C2CCCN(c3ncnc4c3nc3n4CCCCC3)C2)CC1 (centres unmarked),-5.14
7,O=C(NCc1cccs1)c1nc2ncccn2n1,7.67
8,O=C1CC(C(=O)N2CCN(S(=O)(=O)c3cccc(F)c3)CC2)CN1Cc1ccccc1Cl (centres unmarked),0.225
9,COc1ccc(NC(=O)CC2C(=O)N(C)C(=S)N2Cc2ccc3c(c2)OCO3)cc1 (centres unmarked),-4.34
10,N#CC1CCN(C(=O)c2ccc3c(Cl)c4c(nc3c2)CCCC4)CC1,7.08
11,COc1ccc(/C(C)=N/N=C2/NC(=O)CC(C(=O)O)S2)cc1 (centres unmarked),5.89
12,CCOC(=O)c1ccc(N2CN(CCc3ccccc3)CNC2=S)cc1,7.78
13,COc1ccc(C)cc1Nc1n[n+](-c2ccccc2)c(-c2ccc(N(C)C)cc2)s1.[Cl-],-6.88
14,COc1ccc(S(=O)(=O)c2c(O)c3ccc(C(=O)Nc4ccc(F)cc4)cc3[nH]c2=O)cc1,11.2
15,Cc1c2cnn(CC(=O)N3CCN(c4ncccn4)CC3)c(=O)c2c(C)n1Cc1ccc(F)cc1,6.47
16,COc1ccc(NC(=O)CSc2nc(O)c(Cc3ccccc3)c(=O)[nH]2)cc1,8.66
17,O=C(NC1=NCCS1)c1ccc(-c2ccc(Cl)cc2)o1,-1.77
18,O=C(C1=C[C@H](C2CC2)C[C@H](OCc2ccc(CO)cc2)O1)N1CCN(Cc2ccccc2)CC1,-8.6
19,COc1ccc(N/C(=C2\CCCC2=O)C2CCCCC2)cc1,15.8
20,CCN(CCCNC(=O)Cn1ncc2c([nH]c3ccc(C)cc32)c1=O)c1cccc(C)c1,12.8
21,CCN(CC)S(=O)(=O)c1ccc(Cl)c(C(=O)N2CCc3ccccc32)c1,-5.53
22,O=C(O)c1cc(N/N=C/c2cccc3ccccc23)ccc1Cl,5.2

row,SMILES,"hERG current change (%, negative = inhibition) at 1uM [%]"
1,O=C(CCC1N=C2c3ccccc3N=C(SCc3ccccc3Cl)N2C1=O)NCc1ccco1 (centres unmarked),-1.51
2,COc1cccc(CC(NC(C)=O)C(=O)NC2CCN(c3nc(C)cc(C)c3C#N)CC2)c1OC (centres unmarked),-5.03
3,CC(OC(=O)CNC(=O)C12CC3CC(CC(C3)C1)C2)C(=O)Nc1ccc(N2CCOCC2)cc1 (centres unmarked),-5.82
4,CC(C)N(C(=NCc1ccccc1)NC(=O)c1ccccc1)C(C)C,3.4
5,O=C(CC1CCCCC1)NCCOc1ccccc1,4.35
6,N#Cc1ccccc1OCC(=O)NCC(c1ccc(F)cc1)N1CCOCC1 (centres unmarked),2.06
7,CCSc1ncc(Cl)c(C(=O)Nc2ccc(S(N)(=O)=O)cc2)n1,7.59
8,O=C(N1CCN(c2ccccc2F)CC1)C1(S(=O)(=O)c2ccc(Cl)cc2)CC1,13.1
9,O=C(Cc1ccccc1)Nc1ccc(NC(=O)c2ccccc2)nc1,4.52
10,C/C(=N\Nc1cccc(C(F)(F)F)c1)c1ccc(O)cc1,14
11,CN1CCN(NC(=O)c2cccc(F)c2)CC1,6.98
12,Cc1ccc2nc(NC(=O)c3ccc(Cl)s3)sc2c1,5.88
13,Cc1cc(N/C=C\c2nnnn2-c2ccccc2)no1,14
14,CN1c2ccc([N+](=O)[O-])cc2CC2(C(=O)NC(=O)N(c3ccc(Br)cc3)C2=O)C1c1ccccc1 (centres unmarked),6.34
15,CCN1C(=O)/C(=C2\SC(N3CCCCC3)=NC2=O)c2ccccc21,6.75
16,O=C(NC1CCCC1)c1ccc(S(=O)(=O)N2CCCC2)cc1,16.2
17,CSc1ccc(/C=C/C(=O)OCC(=O)N2CCN(S(=O)(=O)c3ccc(C)cc3C)CC2)cc1,11.8
18,COc1ccc2[nH]c(C)c(CN3CCCCC3)c(=O)c2c1,10
19,COC(OC)c1ccnc(-c2ccc(OC(=O)c3cccs3)cc2)n1,-8.28
20,CC(C)(C)S(=O)(=O)/C(C#N)=N/Nc1ccc(Cl)cc1,23.3
